From PubChem BioAssay AID485344 (National Center for Advancing Translational Sciences (NCATS), 2010)
About 6,900 (2%) of roughly 340,000 compounds were called active. Cut-off read from the data, not from the text of the source: active = inhibition above about 30%; inactive = below that, where a call was filed. This is a selection; strong and weak results do not stand in their true shares. The source gives no active or inactive call for entries shown without one.

molecular target: D(2) dopamine receptor (Homo sapiens) (UniProt P14416); experiment: HTS Assay for Allosteric Antagonists of the Human D2 Dopamine Receptor: Primary Screen for Antagonists; settings: HEK293 TREx D2 cells, calcium flux, dopamine EC80; at 10 µM; stronger effect = higher value; note: 0% is about no effect
Outline: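 Calcium mobilization kinetics were recorded at 1 s intervals in tetracycline-induced HEK293 T-REx D2 cells, first for 180 s after compound addition and then 180 s after EC80 dopamine.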

Sequence of UniProt P14416 (P14416 whole entry, looked up): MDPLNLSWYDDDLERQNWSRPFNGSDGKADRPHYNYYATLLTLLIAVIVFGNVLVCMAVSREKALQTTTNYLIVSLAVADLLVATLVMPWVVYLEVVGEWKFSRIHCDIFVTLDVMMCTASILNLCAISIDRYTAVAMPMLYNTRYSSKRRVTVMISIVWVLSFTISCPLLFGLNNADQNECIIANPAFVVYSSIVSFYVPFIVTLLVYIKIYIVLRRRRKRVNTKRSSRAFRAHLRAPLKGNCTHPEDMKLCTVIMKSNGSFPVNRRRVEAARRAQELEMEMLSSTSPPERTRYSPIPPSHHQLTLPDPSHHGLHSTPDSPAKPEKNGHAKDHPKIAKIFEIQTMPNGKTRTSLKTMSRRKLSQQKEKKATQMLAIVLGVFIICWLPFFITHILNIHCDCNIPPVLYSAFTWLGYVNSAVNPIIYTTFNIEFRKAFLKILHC

SMILES	inhibition
CC(C)(C)C1CCc2nc(NC(=O)Cc3ccc(Cl)cc3)sc2C1 (stereo unspecified)	0.468%
CCC(Sc1nncn2c1cc1sccc12)C(=O)Nc1cccc(OC)c1 (stereo unspecified)	-8.57%
Cc1cccc(NC(=O)C2CCCN(S(=O)(=O)c3c(C)noc3/C=C/N(C)C)C2)c1C (stereo unspecified)	12%
O=C(Nc1ccc(F)c(F)c1)C1CCCN(S(=O)(=O)c2cccc3nonc23)C1 (stereo unspecified)	20.4%
Cc1ccc(C)c(N2CCN(C(=O)CN3C(=O)CSc4c3c(C)nn4-c3ccccc3)CC2)c1	3.91%
CCN(CC)CCCCN1c2ccccc2Sc2ccccc21	active: 47.1%
CN(C(=O)CSc1nnc2[nH]c(=O)cc(-c3ccccc3)n12)c1ccccc1	-10.1%
Cc1ccc(C)c(NC(=O)CCNS(=O)(=O)c2ccc3c(c2)CCCC(=O)N3)c1	3.14%
COCCNC(=O)c1ccc2c(c1)N(Cc1cccc(Cl)c1)C(=O)c1ccccc1S2=O (stereo unspecified)	2.75%
CCOC(=O)c1cc(-c2ccccc2)n(CC(=O)NCc2ccccc2OC)c1C	-14.5%
Fc1ccc(CNc2ncnc3c2c(-c2ccccc2)cn3-c2ccccc2)cc1	2.24%
Cn1c(=O)n(C)c2cc(S(=O)(=O)Nc3ccccc3C(=O)O)ccc21	12%
CCOc1ccccc1NS(=O)(=O)c1c(-c2ccc(C)cc2)csc1C(=O)OC	4.49%
Cc1c2cnn(-c3ccccc3)c(=O)c2c(C)n1CCCC(=O)Nc1ccc(F)cc1F	-7.6%
NC(=O)c1cc(S(=O)(=O)NCC2CCC(C(=O)Nc3cccc(Cl)c3)CC2)cs1 (stereo unspecified)	-2.94%
Cc1c(Cl)cccc1NC(=O)CCS(=O)(=O)c1ccc(Br)s1	28.2%
CC(C)(C)C1CCc2onc(C(=O)Nc3sc4c(c3C(N)=O)CCCC4)c2C1 (stereo unspecified)	3.1%
CCOC(=O)c1cc(-c2ccccc2)n(CCCC(=O)Nc2ccc(CC)cc2)c1C	11.5%
O=C(c1ccc2c(Cl)c3c(nc2c1)CCCC3)N1CCN(c2ccccc2)CC1	1.21%
CCCc1nnc(NC(=O)c2nc(S(=O)(=O)Cc3ccc(C)cc3)ncc2Cl)s1	-6.72%
Cc1ccc(NC(=O)CSc2nc3ccccc3c3nc(CCn4c(C)nc5ccccc54)nn23)cc1F	-8.9%
Cc1ccc2nc(-c3ccccn3)c(Nc3ccc(F)cc3)n2c1	-20.3%
CCC(C)NC(=O)c1ccc2c(c1)N(Cc1ccccc1)C(=O)c1ccccc1S2(=O)=O (stereo unspecified)	-1.82%
CN1CCN(CCCNC(=O)c2cnn(-c3ccccc3)c2C2CCN(C(=O)OC(C)(C)C)CC2)CC1	0.776%

SMILES	inhibition
CCC(Oc1ccccc1)C(=O)Nc1ccccc1OCc1cc(=O)n2ccccc2n1 (stereo unspecified)	21%
O=C(CCN1CCN(c2ccc([N+](=O)[O-])cc2)CC1)c1ccc(Cl)cc1	active: 33.8%
CC1=C(C(=O)Nc2ccc(Cl)cc2)C(C(C)C)n2nc(SCc3cccc(C)c3)nc2N1 (stereo unspecified)	4.12%
Cc1cccc(CNC(=O)c2cnc3sc(N4CCCCC4)nn3c2=O)c1	-4.71%
CCc1nn(CC(=O)Nc2cccc(C)c2C)c(=O)c2cc3sccc3n12	2.65%
Cc1ccc(CCNC(=O)C2CCCN(Cc3nc(-c4cccc(Cl)c4)oc3C)C2)cc1 (stereo unspecified)	-4.16%
COc1ccccc1N1CCN(CC(=O)Nc2c(C)n[nH]c2C)CC1	active: 53.4%
COc1ccc(-c2noc(C3CC(=O)N(c4cc(C)cc(C)c4)C3)n2)cc1 (stereo unspecified)	-22.7%
COc1ccc(/C=C/c2nc(C#N)c(N3CCN(c4ccccc4)CC3)o2)cc1OC	10.1%
O=C(Cc1ccc(F)cc1)N1CCC(c2nc3c(nnn3Cc3ccc(Cl)cc3)c(=O)[nH]2)CC1	7.58%
CN(C(=O)CSc1cn(CC(=O)N2CCCCC2)c2ccccc12)c1ccccc1	27.2%
Cc1cccc(NC(=O)C(=O)NCC(c2cccnc2)N2CCOCC2)c1 (stereo unspecified)	-3.9%
CCCOc1ccc(C2c3c(-c4ccccc4O)n[nH]c3C(=O)N2Cc2ccncc2)cc1OCC (stereo unspecified)	0.145%
COc1ccc(C)cc1NC(=O)C(=O)NCCc1csc(-c2ccc(C)cc2)n1	2.77%
C/C(=N/NC(=O)c1ccncc1)c1c[nH]c2ccccc12	active: 47.9%
CCOC(=O)c1ccc(NC(=O)c2oc3ccc4c(c3c2C)C(=O)CC(C)(CC)O4)cc1 (stereo unspecified)	-4.35%
Cn1c(=O)c2c(SCC(=O)NCc3ccco3)nc(-c3ccccc3Cl)nc2n(C)c1=O	10%
Cc1ccc(NC(=O)CSc2nc3c(c(=O)[nH]2)CN(Cc2ccc4c(c2)OCO4)CC3)cc1C	16.1%
Cc1ccc(NC(=O)CN2CCN(c3ccccn3)CC2)cc1S(=O)(=O)N(C)C	active: 76.8%
CC(C)c1ccc(CNCCSc2nnnn2C)cc1	-5.59%
CCN(CC)CCNC(=O)c1ccc(NC(=O)c2c(C)nn(-c3ccc(F)cc3)c2Cl)cc1	active: 40.9%
CCc1ccccc1NC(=O)c1cc(S(=O)(=O)NCCc2ccc(OC)c(OC)c2)ccc1F	-5.79%
CC(=O)Nc1c(C)nn(-c2ccccc2)c1N1CCC(C(=O)Nc2cc(Cl)ccc2C)CC1	-2.07%
CCOc1ccc(NC(=O)C(C)Sc2nnc3cc(C)c4ccccc4n23)cc1 (stereo unspecified)	-3.41%

SMILES	inhibition
Cc1nnc(NC(=O)c2nc(S(=O)(=O)Cc3ccccc3)ncc2Cl)s1	10.9%
Cc1nc2c(-c3ccccc3)c(C)nn2c(C)c1CCC(=O)NCc1cccc(Cl)c1	17.9%
CCCCC(=O)Nc1cccc(OCc2cc(=O)n3ccccc3n2)c1	1.75%
COc1ccccc1CNC(=O)Cn1ncc2c(=O)oc3ccc(C)cc3c21	1.43%
Cc1ccc(Nc2c(-c3ccc(C)cc3)nc3cnccn23)cc1	4.48%
COc1ccccc1N1CCN(C2CCCN(Cc3c(F)cccc3F)C2)CC1 (stereo unspecified)	active: 53.1%
Cc1ccccc1CS(=O)(=O)Cc1ccc(C(=O)NCCc2ccccc2)o1	-3%
COc1cc(C(=O)Nc2cc(C)ccc2OCc2cc(=O)n3cc(C)sc3n2)cc(OC)c1OC	8.4%
NCCc1nnc(SCc2ccc(Cl)cc2)o1	-9.28%
COc1ccccc1C(=O)Nc1nc2ccc(S(=O)(=O)N3CCCC3)cc2s1	-15.5%
COc1ccc(C(=O)CN2C(=O)N(c3cc(C)cc(C)c3)S(=O)(=O)c3ccccc32)cc1	4.52%
Clc1ccc(CCNc2ncnc3c2c(-c2ccccc2)cn3-c2ccccc2)cc1	0.6%
CCOC(=O)CSc1nc2cc3c(cc2c(=O)n1CCCC(=O)NCc1ccc2c(c1)OCO2)OCO3	7.9%
CCCOc1ccccc1C(=O)N1CCC(c2nc3ccccc3s2)CC1	-2.09%
COC(=O)CN1C(=O)CSc2ccc(S(=O)(=O)Nc3ccc(Cl)cc3C)cc21	2.02%
CCOC(=O)CN1C(=O)C(Sc2n[nH]c(-c3ccc(C)cc3)n2)CCc2ccccc21 (stereo unspecified)	active: 60.8%
CC(C)Cc1nn2c(=O)cc(COC(=O)c3cccc(NC(=O)CCc4ccccc4)c3)nc2s1	4.61%
C=Cc1ccc(CSc2nc(-c3ccc(OC)cc3)nc3c2Cc2c(CO)cnc(C)c2O3)cc1	-14.4%
Cc1ccc2ccc(C(Nc3ccccn3)c3ccccc3)c(O)c2n1 (stereo unspecified)	5.93%
COc1cccc(-c2nc3c(c(SCc4ccccc4)n2)Cc2c(CO)cnc(C)c2O3)c1	-0.247%
NC(=O)c1cc(S(=O)(=O)NCc2ccccc2)cs1	10.9%
CCCn1c(=O)n(-c2ccccc2)c(=O)c2sc3ccccc3c21	5.55%
CN(C(=O)CCNC(=O)Cn1cnc2ccccc2c1=O)c1ccccc1F	4.83%
C=CCc1c(C)nc2nc(SCC(=O)Nc3ccccc3CC)nn2c1C	1.27%

SMILES	inhibition
CCOc1ccc(CCNC(=O)CN2CCN(Cc3ccc(F)cc3Cl)C2=O)cc1OCC	-2.51%
COc1ccc(NC(=O)CSc2nnc(-c3ccc(C)cc3)o2)cc1	11.5%
Cc1ccc(Cl)cc1N1CCN(C(=O)c2cn(C3CCCCC3)c(=O)c3c2c2ccccc2n3C)CC1	0.766%
CN(C)c1ccc(C(CNC(=O)COc2ccc(Cl)cc2)N2CCOCC2)cc1 (stereo unspecified)	5.15%
COc1cccc(N2CCN(C(=O)C3CCC(CNS(=O)(=O)c4ccc(Br)s4)CC3)CC2)c1 (stereo unspecified)	-2.8%
Cc1ccc(NC(=O)CN2CCCN(Cc3cc(C)ccc3C)S2(=O)=O)c(Cl)c1	-4.24%
COCCCNC(=O)Cn1c(=O)n(-c2ccc(C)cc2)c(=O)c2c1c1cc(C)ccc1n2C	4.8%
CCS(=O)(=O)N1CC(=O)N(c2ccccc2C)C(C)(C(=O)NC2CCCCC2)C1 (stereo unspecified)	1.94%
COC(=O)C1CCN(S(=O)(=O)c2cc3c4c(c2)C(C)C(=O)N4CCC3)CC1 (stereo unspecified)	-19.5%
CC(=O)N1c2ccccc2CC1C(=O)N1CCN(c2ccc(F)cc2)CC1 (stereo unspecified)	-5.81%
O=C(Nc1ccc(F)cc1F)c1ccc(CN2CC(=O)N3CCCCC3C2=O)cc1 (stereo unspecified)	8.73%
O=C(CSc1nc2ccccc2c2nc(-c3ccccc3)nn12)Nc1ccc(Br)cc1	-11.3%
CC(C)(C)c1cc(C(C)(C)C)c2oc(=O)c(-c3nc4ccccc4[nH]3)cc2c1	8.07%
Cc1ccc(Cn2c(SCC(=O)NCc3ccc(Cl)cc3)nc3ccsc3c2=O)cc1	8.24%
CCc1cc(C(=O)Nc2c(C)nn(Cc3ccc(C)cc3)c2C)no1	8.4%
CCOC(=O)c1noc2ncnc(N3CCN(c4ccccc4OC)CC3)c12	3.91%
CCOC(=O)c1c(C)c(-c2ccccc2)n(CC(=O)Nc2cc(OC)cc(OC)c2)c1C	-14.4%
CC(C)(C)NS(=O)(=O)c1ccc2nc(NC(=O)c3cccnc3)sc2c1	0.178%
COC(=O)CNC(=O)Nc1cc(C(=O)NCc2ccc(C)cc2)ccc1N1CCCC1	-2.02%
CC(Oc1ccccc1)C(=O)Nc1nc2ccc(S(N)(=O)=O)cc2s1 (stereo unspecified)	24.4%
OC(CNCCc1ccc(C(F)(F)F)cc1)COC(c1ccccc1)c1ccccc1 (stereo unspecified)	active: 31%
Cc1cc2c(cc1S(=O)(=O)NCc1ccc(N(C)C)cc1)OCC(=O)N2	-28.5%
COc1ccc(N(CC(=O)NC(C)c2ccccc2)S(=O)(=O)c2c(C)noc2C)cc1 (stereo unspecified)	11.7%
CCCN(C(=O)c1cc2c(s1)-c1ccccc1SC2)c1ccccc1F	-2.41%
